# In the supplement of paper PMC8728848:
# The list shows a part of the results.
# B1: B1567 (Bifidobacterium sp) (protein)
# chain: MKFTTAKKAVALTGAVAMLVSVAACGSDSGKSSQPAQDSDVKEITVWAWEPSLTQVAKDFEKETGIKVDLKNVGTNTKEYTQLDNAIEAGSGAPDVAQVEYYAVPQYAIKGNLLDITDKTSGYKDFYTPGPWASVQFAGKVYGLPMDSGPMAFFYNKEVFDKAGVDAEQIKTWDQYYDAAKKIHALGDNYYITSDTGDAGFFDSMTWLAGAKPFQTSSDGSEVTVNLTEDKGVKTFTDFWQKLLDEGLLDTKTAGWSEDWFKGMVDGTIASLFTGAWMPANLANSAADGAGKWRVTQMPTADGSTTNSENGGSSLAVLASTKKADAAYQFIEYANHGAGVATRVAGGAFPADKASLEKDSFKNATTVKNADGQDVDYFGGQKYNEVLAQAAENVSSGYQFLPFEVKARTIFGDYFGKSYTGDQKLSDGVAAWQKALQDYGKDQGFTVK
# Columns and labels:
# Assay in all cases: glycan array binding signal (z-score within array); higher = stronger binding
# Settings in all cases: glycan notation: IUPAC condensed, linker removed
# [1] = target: Gal(b1-4)GlcNAc(b1-2)Man(a1-6)[Man(a1-3)]Man(b1-4)GlcNAc(b1-4)GlcNAc
# Summary of the method: (§1)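 Glycan array data came from 3228 arrays in the Consortium for Functional Glycomics database, and only arrays with an available protein sequence were kept. Glycan names were put into IUPAC-condensed notation, and columns mapping to the same glycan were averaged. The binding signal is a within-array Z-score, averaged across arrays of one protein sequence run at different concentrations or buffers and across linkers. A negative Z-score can be read as non-binding.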
# [2] = target: Gal(b1-4)GlcNAc(b1-2)[Gal(b1-4)GlcNAc(b1-4)]Man(a1-3)[Gal(b1-4)GlcNAc(b1-2)Man(a1-6)]Man(b1-4)GlcNAc(b1-4)GlcNAc
# Summary of the method: as §1
# [3] = target: Gal(b1-4)GlcNAc(b1-2)[Gal(b1-4)GlcNAc(b1-4)]Man(a1-3)[Gal(b1-4)GlcNAc(b1-2)[Gal(b1-4)GlcNAc(b1-6)]Man(a1-6)]Man(b1-4)GlcNAc(b1-4)GlcNAc
# Summary of the method: as §1
# [4] = target: Gal(b1-4)GlcNAc(b1-2)[Gal(b1-4)GlcNAc(b1-4)]Man(a1-3)[GlcNAc(b1-4)][Gal(b1-4)GlcNAc(b1-2)Man(a1-6)]Man(b1-4)GlcNAc(b1-4)GlcNAc
# Summary of the method: as §1
# [5] = target: Gal(b1-4)GlcNAc(b1-2)[Gal(b1-4)GlcNAc(b1-4)]Man(a1-3)[GlcNAc(b1-4)][Gal(b1-4)GlcNAc(b1-2)[Gal(b1-4)GlcNAc(b1-6)]Man(a1-6)]Man(b1-4)GlcNAc(b1-4)GlcNAc
# Summary of the method: as §1
# [6] = target: Gal(b1-4)GlcNAc(b1-2)[Gal(b1-4)GlcNAc(b1-6)]Man(a1-6)[Gal(b1-4)GlcNAc(b1-2)Man(a1-3)]Man(b1-4)GlcNAc(b1-4)GlcNAc
# Summary of the method: as §1
# [7] = target: Gal(b1-4)GlcNAc(b1-2)[Gal(b1-4)GlcNAc(b1-6)]Man(a1-6)[Gal(b1-4)GlcNAc(b1-2)Man(a1-3)]Man(b1-4)GlcNAc(b1-4)[Fuc(a1-6)]GlcNAc
# Summary of the method: as §1
# [8] = target: Gal(b1-4)GlcNAc(b1-2)[Gal(b1-4)GlcNAc(b1-6)]Man(a1-6)[GlcNAc(b1-4)][Gal(b1-4)GlcNAc(b1-2)Man(a1-3)]Man(b1-4)GlcNAc(b1-4)GlcNAc
# Summary of the method: as §1
# [9] = target: Gal(b1-4)GlcNAc(b1-2)[Gal(b1-4)GlcNAc(b1-6)]Man(a1-6)[GlcNAc(b1-4)][Gal(b1-4)GlcNAc(b1-2)[Gal(b1-4)GlcNAc(b1-4)]Man(a1-3)]Man(b1-4)GlcNAc(b1-4)[Fuc(a1-6)]GlcNAc
# Summary of the method: as §1
# [10] = target: Gal(b1-4)GlcNAc(b1-3)Gal(b1-3)GalNAc
# Summary of the method: as §1
# [11] = target: Gal(b1-4)GlcNAc(b1-3)Gal(b1-3)GlcNAc
# Summary of the method: as §1
# [12] = target: Gal(b1-4)GlcNAc(b1-3)Gal(b1-4)Glc
# Summary of the method: as §1
# [13] = target: Gal(b1-4)GlcNAc(b1-3)Gal(b1-4)GlcNAc
# Summary of the method: as §1
# [14] = target: Gal(b1-4)GlcNAc(b1-3)Gal(b1-4)GlcNAc(b1-2)Man(a1-3)[Gal(b1-4)GlcNAc(b1-3)Gal(b1-4)GlcNAc(b1-2)Man(a1-6)]Man(b1-4)GlcNAc(b1-4)GlcNAc
# Summary of the method: as §1
# [15] = target: Gal(b1-4)GlcNAc(b1-3)Gal(b1-4)GlcNAc(b1-2)Man(a1-3)[Gal(b1-4)GlcNAc(b1-3)Gal(b1-4)GlcNAc(b1-2)Man(a1-6)]Man(b1-4)GlcNAc(b1-4)[Fuc(a1-6)]GlcNAc
# Summary of the method: as §1
# [16] = target: Gal(b1-4)GlcNAc(b1-3)Gal(b1-4)GlcNAc(b1-2)[Gal(b1-4)GlcNAc(b1-3)Gal(b1-4)GlcNAc(b1-6)]Man(a1-6)[Gal(b1-4)GlcNAc(b1-3)Gal(b1-4)GlcNAc(b1-2)Man(a1-3)]Man(b1-4)GlcNAc(b1-4)GlcNAc
# Summary of the method: as §1
# [17] = target: Gal(b1-4)GlcNAc(b1-3)Gal(b1-4)GlcNAc(b1-2)[Gal(b1-4)GlcNAc(b1-3)Gal(b1-4)GlcNAc(b1-6)]Man(a1-6)[Gal(b1-4)GlcNAc(b1-3)Gal(b1-4)GlcNAc(b1-2)Man(a1-3)]Man(b1-4)GlcNAc(b1-4)[Fuc(a1-6)]GlcNAc
# Summary of the method: as §1
# [18] = target: Gal(b1-4)GlcNAc(b1-3)Gal(b1-4)GlcNAc(b1-3)Gal(b1-4)GlcNAc
# Summary of the method: as §1
binder,measurement,setting,value
B1,glycan array binding signal (z-score),[1],-0.117
same,glycan array binding signal (z-score),[2],-0.095
same,glycan array binding signal (z-score),[3],-0.163
same,glycan array binding signal (z-score),[4],-0.031
same,glycan array binding signal (z-score),[5],-0.127
same,glycan array binding signal (z-score),[6],-0.083
same,glycan array binding signal (z-score),[7],-0.102
same,glycan array binding signal (z-score),[8],-0.145
same,glycan array binding signal (z-score),[9],-0.128
same,glycan array binding signal (z-score),[10],-0.08
same,glycan array binding signal (z-score),[11],-0.144
same,glycan array binding signal (z-score),[12],14.9
same,glycan array binding signal (z-score),[13],0.588
same,glycan array binding signal (z-score),[14],0.068
same,glycan array binding signal (z-score),[15],0.102
same,glycan array binding signal (z-score),[16],-0.035
same,glycan array binding signal (z-score),[17],0.121
same,glycan array binding signal (z-score),[18],1.4
